Assay results reported in patent US20250223331A1, “GLP-1/GIP DUAL-TARGETED POLYPEPTIDE AND FUSION PROTEIN AND APPLICATIONS THEREOF” (SUNSHINE LAKE PHARMA CO., LTD., priority 2021, published 2025).

How the values were obtained:
[1] = system: db/db mice; experiment: in vivo efficacy in db/db mouse model, blood glucose
Experimental: Methods: 7-8 week old db/db mice were randomly divided into 3 groups (Model group, Semaglutide group, HEC-G20 group) according to blood glucose and body weight, with 9 mice in each group. For the groups of Semaglutide (Semaglutide was purchased from Novo Nordisk, lot number was JP52092) and HEC-G20, the corresponding drug was administered subcutaneously into the mice at a dose of 10 nmol/kg for each group, and for the Model group, the corresponding vehicle was injected subcutaneously. The Semaglutide group was dosed once a day, and the HEC-G20 group was dosed twice a week for a total of 4 weeks, and animal blood glucose was tested before each dose.

[2] = system: GLP-1R or GIPR; experiment: in vitro agonistic activity of fusion proteins, summary statement; format: cell-based; details: cAMP, GLP-1R / GIPR cells
Experimental: The digested product was electrophoresed on 1% agarose gel and the target band was cut out with a clean blade, then a gel recovery kit was used to recover the target fragment. The specific experimental operations are carried out according to the kit instructions; • 3) The target fragment enzymatic digestion recovery product and vector plasmid pcDNA3.1 fragment were connected through T4 ligase and transformed into DH5a competent cells, then single colonies were isolated by spreading on plates, and the transformants were selected and expanded for enzyme digestion verification and sequencing verification. • 4) 200 mL of the bacterial liquid obtained in inoculation step 3) and verified by sequencing to contain the fusion protein of the target product was used for plasmid extraction. The kit used was PureLink HiPure Plasmid Maxiprep Kit, and according to the instructions. After the plasmid was verified to be correct by PCR and enzyme digestion, pvuI restriction enzyme was used for linearization. Finally, the ethanol precipitation method was used to recover the plasmid. • 5) The host cells were HEK293, one day before transfection, the cells were spread into a 6-well plate at a density of 2×10^6 cells/well, and the addition volume was 1 mL/well. The recovered linearized plasmid was transfected into HEK293 cells using Lipofectamine 3000 transfection method, then G418 was added to screen to obtain mixed strains, single clones were obtained by limiting dilution and isolation, and the activity was tested and verified.
The cAMP produced by the recipient cells was detected by a cAMP detection kit (Cisbio, 62AM6PEC) according to the steps described in the operating instructions. […] If the mixture was not completely melted within 1.5 min, the cells were added dropwise to a 15 mL centrifuge tube containing 8 mL warm culture medium on a clean bench, then centrifuged at 900 rpm for 5 min, the supernatant was discarded, and the cells were re-suspended with 1 mL complete culture medium (15 times by pipetting).

[3] = system: normal C57BL/6 mice; experiment: glucose tolerance in normal C57BL/6 mice (Example 7); format: in vivo; details: 3 nmol/kg s.c. single dose, 72 h after dose, 2 g/kg glucose i.p.
[4] = system: normal C57BL/6 mice; experiment: as above; format: in vivo; details: for Blood glucose value 0 min / Blood glucose value 15 min / Blood glucose value 30 min / Blood glucose value 60 min: 3 nmol/kg s.c. single dose, 72 h after dose, 2 g/kg glucose i.p.; for improving glucose tolerance compared with positive control Dulaglutide: 3 nmol/kg s.c., 72 h; for effect on blood glucose level: normal C57 mice after a single dose for 72 h
Experimental: (§1) Experimental methods: Normal C57BL/6 mice were randomly divided into 6 groups (Vehicle group, Dulaglutide group, HEC-G123 group, HEC-G128 group, HEC-G131 group, HEC-G132 group) according to blood glucose and body weight, with 8 mice in each group. For the groups of Dulaglutide, HEC-G123, HEC-G128, HEC-G131 and HEC-G132, the corresponding drug was injected subcutaneously into the mice at a dose of 3 nmol/kg, and for the control group, the corresponding vehicle was injected subcutaneously.
(§2) After 60 h of single administration, the mice were fasted for 12 h and drank water freely. Blood was collected from the tail vein to measure the basal blood glucose value of each group, then 2 g/kg of glucose solution was injected intraperitoneally, and blood glucose was measured at 15, 30, 60, and 0 min after glucose administration. According to the blood glucose values measured at different time points, the blood glucose concentration-time curve was plotted, and the AUC0˜90min of each dose group was calculated, and the experimental results are shown in Table 6 and FIGS. 1-2.

[5] = system: normal C57BL/6 mice; experiment: glucose tolerance in normal C57BL/6 mice (Example 8); format: in vivo
Experimental: as §1, with “HEC-G113” for “HEC-G123”, “HEC-G122” for “HEC-G128”, “HEC-G126” for “HEC-G131”, “HEC-G127” for “HEC-G132”, “Dulaglutide (Dulaglutide purchased from Eli Lilly, lot number was D256504), HEC-G113, HEC-G122, HEC-G126” for “Dulaglutide, HEC-G123, HEC-G128, HEC-G131”, “HEC-G127,” for “HEC-G132,”
as §2, with “60, 90” for “60,”, “Table 7” for “Table 6”, “FIGS. 3-4” for “FIGS. 1-2.”

Molecule | agonistic activity in vitro [2] | Blood glucose value 90 min [3] | Blood glucose value 0 min [4] | Blood glucose value 15 min [4] | Blood glucose value 30 min [4] | Blood glucose value 60 min [4] | improving glucose tolerance compared with positive control Dulaglutide [4] | effect on blood glucose level [4] | also measured
HEC-G20: fusion protein of SEQ ID NO: 13 polypeptide, linker peptide and Fc fragment (protein) YGEGTFTSDYSIYLDKKAQRDFVEWLLAGGPSSGAPPPSGGGGSGGGGSGGGGSA[here human IgG4 Fc with S228P F234A L235A (EU numbers) without letters] | strong activity in vitro |  |  |  |  |  |  |  | hypoglycemic effect ([1]; 10 nmol/kg s.c. twice a week, 4 weeks): significantly reduce blood glucose; also recorded: significantly improve blood glucose levels; Random blood glucose 1.5 h ([1]; 10 nmol/kg s.c., 1.5 h): 20.9 ± 3.3 mM; Random blood glucose 5 h ([1]; 10 nmol/kg s.c., 5 h): 14.8 ± 3.4 mM; Random blood glucose 7 h ([1]; 10 nmol/kg s.c., 7 h): 14.2 ± 3.8 mM; Random blood glucose D 0 ([1]; 10 nmol/kg s.c., Semaglutide once a day, HEC-G20 twice a week, D 0): 26.0 ± 4.7 mM; Random blood glucose D 3 ([1]; 10 nmol/kg s.c., Semaglutide once a day, HEC-G20 twice a week, D 3): 18.8 ± 4.0 mM; Random blood glucose D 7 ([1]; 10 nmol/kg s.c., Semaglutide once a day, HEC-G20 twice a week, D 7): 17.3 ± 4.2 mM; Random blood glucose D 10 ([1]; 10 nmol/kg s.c., Semaglutide once a day, HEC-G20 twice a week, D 10): 17.2 ± 3.0 mM; Random blood glucose D 14 ([1]; 10 nmol/kg s.c., Semaglutide once a day, HEC-G20 twice a week, D 14): 20.0 ± 4.0 mM; Random blood glucose D 17 ([1]; 10 nmol/kg s.c., Semaglutide once a day, HEC-G20 twice a week, D 17): 18.5 ± 5.2 mM; Random blood glucose D 21 ([1]; 10 nmol/kg s.c., Semaglutide once a day, HEC-G20 twice a week, D 21): 19.4 ± 5.2 mM; Random blood glucose D 24 ([1]; 10 nmol/kg s.c., Semaglutide once a day, HEC-G20 twice a week, D 24): 18.4 ± 4.8 ^a mM; time at which blood glucose value reached the lowest level ([1]; after administration of 10 nmol/kg s.c.): 7 h
HEC-G131: fusion protein of SEQ ID NO: 111 polypeptide, linker peptide and Fc fragment (protein) YSEGTFTSDYSILLDKIAQRDFVEWLIAGGPSSGAPPPSGGGGSGGGGSGGGGSA[here human IgG4 Fc with S228P F234A L235A (EU numbers) without letters] |  | 7.6 ± 1.4 mM | 4.0 ± 0.8 mM | 15.6 ± 1.9 mM | 13.2 ± 2.8 mM | 9.2 ± 2.0 mM | no significant difference in improving glucose tolerance | significantly reduced the blood glucose level | 
HEC-G113: fusion protein of SEQ ID NO: 93 polypeptide, linker peptide and Fc fragment (protein) HSEGTFTSDYSILLDKIAQQDFVEWLLAGGPSSGAPPPSGGGGSGGGGSGGGGSA[here human IgG4 Fc with S228P F234A L235A (EU numbers) without letters] | strong activity in vitro |  |  |  |  |  |  |  | Blood glucose value 0 min ([5]; 3 nmol/kg s.c. single dose, 72 h after dose, 2 g/kg glucose i.p., 0 min): 5.4 ± 0.7 mM; Blood glucose value 15 min ([5]; 3 nmol/kg s.c. single dose, 72 h after dose, 2 g/kg glucose i.p., 15 min): 13.8 ± 2.7 mM; Blood glucose value 30 min ([5]; 3 nmol/kg s.c. single dose, 72 h after dose, 2 g/kg glucose i.p., 30 min): 13.0 ± 2.3 mM; Blood glucose value 60 min ([5]; 3 nmol/kg s.c. single dose, 72 h after dose, 2 g/kg glucose i.p., 60 min): 8.3 ± 1.0 mM; Blood glucose value 90 min ([5]; 3 nmol/kg s.c. single dose, 72 h after dose, 2 g/kg glucose i.p., 90 min): 6.2 ± 0.7 mM; AUC0-90 min ([5]; blood glucose concentration-time curve, 3 nmol/kg s.c. single dose, 72 h after dose): 882.8 ± 115.2 ^a; effect on blood glucose levels ([5]; normal C57 mice after a single dose for 72 h): significantly reduced the blood glucose levels
HEC-G132: fusion protein of SEQ ID NO: 112 polypeptide, linker peptide and Fc fragment (protein) YGEGTFTSDYSILLDKIAQRDFVEWLIAGGPSSGAPPPSGGGGSGGGGSGGGGSA[here human IgG4 Fc with S228P F234A L235A (EU numbers) without letters] |  | 7.6 ± 0.7 mM | 4.3 ± 0.9 mM | 15.7 ± 2.2 mM | 12.3 ± 4.1 mM | 8.4 ± 1.2 mM | no significant difference in improving glucose tolerance | significantly reduced the blood glucose level | 
HEC-G123: fusion protein of SEQ ID NO: 103 polypeptide, linker peptide and Fc fragment (protein) YSEGTFTSDYSILLDKIAQREFVQWLLAGGPSSGAPPPSGGGGSGGGGSGGGGSA[here human IgG4 Fc with S228P F234A L235A (EU numbers) without letters] |  | 5.5 ± 0.4 mM | 4.6 ± 0.7 mM | 13.3 ± 1.9 mM | 8.1 ± 1.1 mM | 6.6 ± 0.6 mM | more significant effect on improving glucose tolerance | significantly reduced the blood glucose level | 
HEC-G128: fusion protein of SEQ ID NO: 108 polypeptide, linker peptide and Fc fragment (protein) YGEGTFTSDYSILLDKKAQRDFIEWLLAGGPSSGAPPPSGGGGSGGGGSGGGGSA[here human IgG4 Fc with S228P F234A L235A (EU numbers) without letters] |  | 5.6 ± 0.6 mM | 4.2 ± 1.1 mM | 11.9 ± 2.0 mM | 9.1 ± 1.7 mM | 6.2 ± 0.9 mM | more significant effect on improving glucose tolerance | significantly reduced the blood glucose level | 

“Also recorded” adds a separate entry of the source. Marks after values point to notes of the source that are not given here.
